Test results published in the supplement of paper PMC12632987.
Whole data set: some 2,300 sequences, median “median log2 fold change of GCK-ALFA target abundance (FLAG IP / Myc IP barcode read proportion)” near 0.095, cut for the lowest 2% near -0.47. The list shows a part of the results.

B1: LC3A_3_1521 (protein)
chain: MEEKKEEIIELLREAGASEETIELAKKTLELLEKRGYEKAIETLLEELKKLKDLPVETIEDFVRDVLELVETKDLSEEELSEEIRRIARTAKNDAEIEEL
B2: LC3A_102_141 (protein)
chain: SVEELKEEVLERVRKRVTELVAADPSVTPEQAKEIVETALELLRARLENLISERQHGFTDIVAEDKAIEAEEELKKYGEELAKKVLEIVEEGLEEFEERL
B3: LC3A_28_1292 (protein)
chain: SAIEEELKRALEEAERARKEGKQQVITVRVPGNATQEEIKLVIEGLEKIAEVLKDVPNQTIVVDVDAGVPQEYIDLLADKAEEIEKKYPNVTVIIALDED
B4: LC3A_127_193 (protein)
chain: KLKEVLEKLIELARKAAELLEDPNADPEEIKKLLEEALKAAKEAVELDPSTQPILDDVEQAKKLFEQYLAASPEEQEALREQLILLLDGIEIEAESKLLK
B5: LC3A_28_946 (protein)
chain: MTVEEQAKAALEEAKKAAEKKEPTVITLTVKGTDTQEEVDLVIDTMKEIAELLKDIKGSAIIVNVEAGVPQEVVDKLADTGEEIEKKYPNINVIIALDEE
B6: LC3A_28_1039 (protein)
chain: SALEKDAEAALKEAEEQLAKGDEAVVTLTVKDTPTEEAVAVVTDFLKRLIELSKKYGNKKIHVVIDYDGDQETLDAIIAAAEEAEAANPNLTVIVAYNDK
B7: LC3A_45_1946 (protein)
chain: MAEATVLVLVPEELFDETLAVLREATEEISKEKGLEAEIDEEAVEEAREEAKREGEALLEVTVYSDDEQKALDAAVEIADRIEEKMGPKVAVAIAIKEIP
B8: LC3A_132_278 (protein)
chain: EEKEKEKAIKEIKELAEKAKKNIKDPEKVKKLLEELRKLLEEIEKTKSPEVAAAAAEEAERELLELSRELEKAGLEDLALEADSLAIEAASLAIRAKKKI
B9: LC3A_74_2070 (protein)
chain: KLTVEEIDRLEELAARLLALIILGEERGLFSEEEVERARELRDRLLEVLRRNGALTEAVEGGIELEAEGLALRLEKDPEEARRLLEETFEEAERLLARVE
B10: LC3A_28_1043 (protein)
chain: NELEKNAEEAIKEAEEQFKKGEEAVVTLKVPKIDTETAKKIVSETLERLIELSKKYGNKKVSVVIDFDGDQETLDAILDVAEEAEKKDPNLTVIVAYDPE
B11: LC3A_free_39_2234 (protein)
chain: SMEEIEKLIKEVAKEGGIDYEYVKSKMKEIQEVGGLSDEQMLELVKALLEAVKEGADAKEILDEILALTKELKAAGKSPEEILEALLETIRDYRNLVPLD
B12: LC3A_28_646 (protein)
chain: SALDKQLEEALAEARAARERGEPVVVTLTVPGDANQEDVDKILKAMEEIAEILKDVPGSAIIVDIERGVAQEYKDKIIDKGEEIEEKYPNVTVIIALEEE
B13: LC3A_free_8_2539 (protein)
chain: SVQKATTAVTAKLDEAEEELRKKAEELGLDRLDILDLELLVGEVIAEVIGLSDKPISEIRKAVEEGMAEVIKYAAELSPELAELAEKAKKEILAILDELE
B14: LC3A_3_1910 (protein)
chain: MEEKIKELRKQAKELGHSEEVIKLAEEAAKLLLKVGNEEGFELLKKAVKALAKLSEADQLAFLKDLLAELKANANDKEKQLAAAKDFLRLAENAAEIIEI
B15: LC3A_28_983 (protein)
chain: MDPREQVEELIKKAKEAAAKGEATVFTITVTSTATEEDIELITEGLKEIAEILKDVKGSAIIVDVESGVPEEYIDKIAETMEEIEKANPNVTTIIALDED
B16: LC3A_59_2013 (protein)
chain: SEEVEKYVKEAYEKFDDPEKFYETVKKMVEELLKKYSPEELLELVEKEAEKLIEEGKDPKKMQAIVDSVKAVLEIEDEEEKKEEIKLILLEAEIEEIDEE
B17: LC3A_free_46_2327 (protein)
chain: VLVEIEIDLLHENEEKMKKAVEEIEKSIKKIAEKYNAKVNIKVEISKDEDGSYFARIKIEVEAETKEKAQKILTEIIDEIEKIAKKYDISVIISYEIIEK
B18: LC3A_28_868 (protein)
chain: SRIDAIVAAFRAELEADAAEGETMVGHVHISSSMSLEEAVELMERVLAVAREFVERTGRKVVIVIDHDGNQEVLDAVMELAERAEEENPLITVIIALSDE
B19: LC3A_3_1850 (protein)
chain: MEEIIEEIKKLLEELGRSEETIEAALELAELLKERGYEEALKELLEKLKELKDLPDEILLAMFEDILREVKTKDLSEEEVIELIKKEAETAKNEAEIIEL
B20: LC3A_3_1833 (protein)
chain: LEAEVAALLELLRAAGHSEEALEAVRRLAEALAARGYEEALRTFIELLRRLVHLPSELLLELAREALELVETEDLSEEELTARIRELARLYENEGEIEEL
B21: LC3A_3_1637 (protein)
chain: MEEEIKARAERLKAAGHSQETIDAFLETANLLKEKGYYEALKTLIEEMDKLKDLPDEILLDMLKEVKAVVEEPNLTEEEVIKKIKEIARVARNEGEIIEL
B22: LC3A_132_317 (protein)
chain: MEEKYEELRKRAEELLEEAKANINNLEKVKELFEEIRKILEEAQKEVTPEQQAELFDEVADKLDEISLAADAAGQEEVADLADGLAVEAAALSIRAEEKI
B23: LC3A_3_1535 (protein)
chain: MDAEIEAALAELRAAGKSDETLAAFRAAADALKEKGYDEALRTFIAEMRELIDLPDELLLDFALDVLELVETEDISEEELIKRIRELARTIRNEGEIIEL
B24: LC3A_28_784 (protein)
chain: SPLKKNVEEALKEAKKAKEKGESVVITIKVPGDATEEDVEYVIKGLEEIAKILEGVKDQAIVIDVDADVAPEHITKLAEKADEIEEKYPNVTVILALEEK
B25: LC3A_102_164 (protein)
chain: DLEKVVKELTKEALAAMDKAIAAEKSLSPEQKAQARALATTAVNAAAENFLTEAKHGFTDIEAEDTRDDALAALAKINPKLAAALKKLLEEMEKKVKEAA
B26: LC3A_3_1366 (protein)
chain: MEEKIEELLEYLKKEGKSEETLEAVRKTLEALIEKGYEEAAETFIELMKKLSHLPDELLLDFAKEVLEKVENEDLSEEELIEFIKEEAKIAENEAEIIEL
B27: LC3A_free_46_2432 (protein)
chain: YKVNIDIDLLHEDKEVLEKAVKEIVERIKEIAKKHGAEIKIETEISKLEDGSYFAKINATITVDDEETAKKIADEIIDAVEEIAEKYNVSYIISVEIEEK
B28: LC3A_free_46_2413 (protein)
chain: YRVRVLVDTRAAPKEKIEATVKELVEGLREIAARHGARVRIEVEIIENEDGTYSAIIRAEIEAPDLATARAIAAEVGRLIDEIDAKTGLVAMYSIDIEEA
B29: LC3A_13_341 (protein)
chain: TVTLEVETAEELRERGFAALAAHPGETIRITVTVRDEEEAEAIAEVLAELVRAAAEAGSDLEITIRGPRDLVLYVALEVGSEAYEHIDKVTVTITEEVVE

Molecular target: MAP1LC3A, Q9H492
Assay: median log2 fold change of GCK-ALFA target abundance (FLAG IP / Myc IP barcode read proportion) (log2 ratio); each designed protein is fused to an ALFA-tag nanobody in HEK293 cells to bring the named protein to FLAG-tagged glucokinase (GCK); Myc marks an untargeted standard; higher = target protein stabilised (more abundant)
Conditions: target protein: 3xFLAG-MCP-GCK-ALFA reporter; HEK293 landing pad (RPLP)
In short: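 Binders fused to an ALFA nanobody were recombined as a library into HEK293 landing-pad cells, which were induced with 2 μg mL^−1 doxycycline and then transfected to express a FLAG-tagged target and a Myc-tagged standard. After 48 h, circular RNA barcodes recovered by anti-FLAG and anti-Myc immunoprecipitation of lysates were reverse transcribed, amplified and sequenced. Each binder's target abundance is the median log2 ratio of FLAG to Myc barcode read proportions, from barcodes present at ≥10^−7 in both replicates, binders carrying ≥3 barcodes per replicate, a 10^−6 pseudocount and pooled replicates.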

| Binder | median log2 fold change |
| --- | --- |
| B1 | 0.407 |
| B2 | 0.0153 |
| B3 | 0.141 |
| B4 | 0.219 |
| B5 | 0.248 |
| B6 | -0.13 |
| B7 | 0.308 |
| B8 | 0.34 |
| B9 | -0.112 |
| B10 | -0.11 |
| B11 | 0.245 |
| B12 | -0.0828 |
| B13 | 0.1 |
| B14 | 0.319 |
| B15 | -0.2 |
| B16 | 0.222 |
| B17 | -0.0206 |
| B18 | -0.188 |
| B19 | 0.0641 |
| B20 | 0.276 |
| B21 | 0.322 |
| B22 | -0.303 |
| B23 | 0.049 |
| B24 | 0.137 |
| B25 | 0.00839 |
| B26 | 0.0931 |
| B27 | 0.0908 |
| B28 | 0.000633 |
| B29 | 0.0625 |
